Experimental findings from ChEMBL document CHEMBL4888484, “Replenishing the malaria drug discovery pipeline: Screening and hit evaluation of the MMV Hit Generation Library 1 (HGL1) against asexual blood stage Plasmodium falciparum ,using a nano luciferase reporter read-out” (2022) are described below.

Molecules are shown by their SMILES. The campaign covered roughly 150,000 compounds. About 540 (0.36%) showed an effect of 50% or more. The list shows a part of the results.

In this experiment the test system is Plasmodium falciparum. In words: Primary screen in NF54 nanoGlo assay, in single point, at 2uM, 72h; a lower Z score goes with more inhibition. The format is functional, Erythrocyte. To be noted: timepoint 72 hour.
Regarding `CCn1cc(S(=O)(=O)N2CC[C@@H]3COCCN(C)[C@@H]3C2)cn1`, the “% Inhibition” value is -15% and the Z score was determined as 2.

For `CCCC(=O)O[C@H]1C[C@@H](C)N(C(=O)c2ccccc2)c2ccc(C)cc21`, the “% Inhibition” value was determined as 2% and the Z score is on record as -0.23.

For `CC(=O)N[C@H]1CN(c2cccc(C#N)n2)C[C@@H]1c1ccc(C)cc1`, the “% Inhibition” value is reported as 12% and the Z score was -1.7.

In the case of `C[C@@H](c1nccs1)N1CCN(c2ncnc3c2ncn3C2CC2)CC1`, the “% Inhibition” value is recorded as 0% and the Z score came out at 0.03.

As to `CCCCS(=O)(=O)N1CCc2cc3ccccc3nc21`, the “% Inhibition” value turned out to be 0% and the Z score is given as -0.06.

As for `Cc1ccn2c(NC(C)(C)CC(C)(C)C)c(CCc3ccccc3)nc2c1`, the “% Inhibition” value was 2% and the Z score was -0.28.

Turning to `CC(C)C(=O)c1cnccc1NC(=O)C[C@H](C)N1CCCCC1=O`, the “% Inhibition” value was determined as 4% and the Z score is recorded as -0.43.

Consider `CCC[C@H]1CN(C(=O)c2cccc(N3Cc4cc(C)c(C)cc4C3)c2)C[C@@H]1N`, for which the “% Inhibition” value is on record as -8% and the Z score amounted to 1.14.

Take `COc1ccc(N2C[C@@H](C(=O)OCC(=O)Nc3cc(C)on3)CC2=O)cc1`: the “% Inhibition” value is 0% and the Z score is reported as 0.02.

Take `O=C(Nc1cc(-n2ccnc2)ncn1)c1ccccn1`: the “% Inhibition” value is recorded as -1% and the Z score stood at 0.16.

With `C[C@H](NS(=O)(=O)c1cccnc1)c1ncnn1C`, the “% Inhibition” value is listed as -12% and the Z score was determined as 1.45.

As to `Cc1cc(C)n([C@H]2CCN(Cc3ccc4c(c3)OCCO4)C2)n1`, the “% Inhibition” value is given as -2% and the Z score came out at 0.38.

Regarding `Clc1cncc(CN2CC[C@H](c3ncccn3)C2)c1`, the “% Inhibition” value amounted to 16% and the Z score was -1.99.

For `COc1cccc([C@H]2CC(=O)Nc3ccsc32)c1OCCc1ccccc1`, the “% Inhibition” value is 6% and the Z score is -0.76.

On to `CCCCn1c(N)c(N(C(=O)Cn2ccc(C(F)(F)F)n2)C2CCCC2)c(=O)[nH]c1=O`, for which the “% Inhibition” value is -10% and the Z score is 1.3.

As to `CCn1ccnc1CN(C)CCc1cnn(C)c1`, the “% Inhibition” value was -6% and the Z score worked out at 0.67.

On to `COc1ccc(-c2n[nH]c(C3CC3)c2NC(=O)Nc2ccc(F)cc2)c(OC)c1`, for which the “% Inhibition” value is recorded as -15% and the Z score turned out to be 2.66.

`COCCN(CCN(C)C)C(=O)c1cnn(C(C)(C)C)c1`: the “% Inhibition” value was -6% and the Z score came to 0.84.

In the case of `Cn1ccnc1CNc1cccc(C(=O)NC2CC2)c1`, the “% Inhibition” value is given as -4% and the Z score was 0.73.

As to `O=C(Nc1ccc2oc(C3CC3)nc2c1)c1ccccc1C(F)(F)F`, the “% Inhibition” value is reported as 14% and the Z score is given as -1.84.

`COc1cc(NC(=O)COc2ccccc2Cl)ncn1`: the “% Inhibition” value came to 4% and the Z score was -0.73.

For the compound `CCc1nnc(Cn2ccc(=O)c3sccc32)o1`, the “% Inhibition” value is listed as -5% and the Z score stood at 0.55.

As for `C[C@H](NCCCNS(C)(=O)=O)c1ccccc1Br`, the “% Inhibition” value is -13% and the Z score is recorded as 2.08.

Consider `Cc1nc(CC(C)C)oc1C(=O)O[C@@H](C)c1nccs1`, for which the “% Inhibition” value is recorded as -7% and the Z score came to 1.

Consider `Cc1cccc([C@@H]2CCCN2Cc2cnc(C3CC3)s2)n1`, for which the “% Inhibition” value came out at 0% and the Z score is listed as -0.05.

As to `Cn1cc(OC[C@H]2CCCC2(F)F)cn1`, the “% Inhibition” value is -9% and the Z score was found to be 1.27.

`Cc1cc(-n2cnnn2)cc(C)c1S(=O)(=O)N1CCCc2ccccc21`: the “% Inhibition” value was found to be 29% and the Z score was -3.33.

As for `Cc1cc(Cl)cc(C(=O)[C@H](C#N)c2nc(C)cc(C)n2)c1`, the “% Inhibition” value is reported as -18% and the Z score is reported as 2.47.

Turning to `CC[C@H](NCc1noc2c1CCCC2)c1cccc(S(N)(=O)=O)c1`, the “% Inhibition” value is listed as -5% and the Z score was determined as 0.61.

`COCc1nc(CN2C[C@@H](C)[C@@](C)(O)C2)no1`: the “% Inhibition” value is -5% and the Z score was 0.48.

For the compound `O=C([C@@H]1CCCO1)N1CCc2ccc(Br)cc2C1`, the “% Inhibition” value is -4% and the Z score is on record as 0.45.

For `COc1c(C)cc(C(=O)[C@H]2CCCN(S(=O)(=O)c3c(C)nn(C)c3Cl)C2)cc1C`, the “% Inhibition” value is -10% and the Z score is 0.9.

As for `CCN1CCCC[C@H]1C(=O)NCc1ccccc1CN1CCOCC1`, the “% Inhibition” value is on record as -4% and the Z score was determined as 0.53.

For `CN(Cc1ccco1)C(=O)Nc1nncs1`, the “% Inhibition” value was -18% and the Z score was 3.37.

With `O=C([C@@H](c1ccccc1)N1CCC(O)CC1)N1CC(Cc2ccccc2)C1`, the “% Inhibition” value is given as -16% and the Z score is reported as 2.2.

In the case of `CCc1c(C)nc(N)nc1NCc1nncn1CCOC`, the “% Inhibition” value is listed as -13% and the Z score was determined as 1.66.

Regarding `CCc1ncc(CN(C)Cc2cccc(CN(C)C)c2)cn1`, the “% Inhibition” value was 5% and the Z score is -0.68.

`Cc1cccnc1CN(Cc1ccccc1)C(=O)c1cc(C#N)cn1C`: the “% Inhibition” value was -12% and the Z score was determined as 1.26.

With `O=C(CN1C(=O)c2ccccc2C1=O)N1CCN(c2cccc(C(F)(F)F)c2)CC1`, the “% Inhibition” value was -3% and the Z score is 0.53.

For `CC(C)[C@]1(C)CC(=O)N(CC(=O)NCc2ccc(C(=O)N3CCOCC3)cc2)C1=O`, the “% Inhibition” value is reported as -1% and the Z score came to 0.16.

In the case of `Cc1nn(-c2nc3ccccc3[nH]2)c2c1[C@@H](c1ccc(Cl)c(Cl)c1)CC(=O)N2`, the “% Inhibition” value stood at 14% and the Z score is reported as -1.74.

Take `CCc1nsc(N2CCCC2C2CCCC2O)n1` (stereo not drawn): the “% Inhibition” value amounted to 2% and the Z score is given as -0.38.

Take `Cc1cc(OCC(=O)c2ccc(Br)cc2)ccc1N1C(=O)CCC1=O`: the “% Inhibition” value is -10% and the Z score was 1.14.

As for `COc1ccccc1[C@@H]1CC(c2cccn2C)=NN1C(=O)CN(C)C(=O)c1ccccc1Cl`, the “% Inhibition” value was -15% and the Z score is 1.43.

As a reminder, the % Inhibition is the drop in the measured response relative to a control, in per cent.
